# Some of the results follow.
# B1: Malectin (Homo sapiens), Q14165 (protein)
# chain: MLGAWAVEGTAVALLRLLLLLLPPAIRGPGLGVAGVAGAAGAGLPESVIWAVNAGGEAHVDVHGIHFRKDPLEGRVGRASDYGMKLPILRSNPEDQILYQTERYNEETFGYEVPIKEEGDYVLVLKFAEVYFAQSQQKVFDVRLNGHVVVKDLDIFDRVGHSTAHDEIIPMSIRKGKLSVQGEVSTFTGKLYIEFVKGYYDNPKVCALYIMAGTVDDVPKLQPHPGLEKKEEEEEEEEYDEGSNLKKQTNKNRVQSGPRTPNPYASDNSSLMFPILVAFGVFIPTLFCLCRL
# B2: Dectin-1 (Mus musculus), Q6QLQ4 (protein)
# chain: EYGHNSGRNPEEKDNFLSRNKENHKPTESSLDEKVAPSKASQTTGGFSQPCLPNWIMHGKSCYLFSFSGNSWYGSKRHCSQLGAHLLKIDNSKEFEFIESQTSSHRINAFWIGLSRNQSEGPWFWEDGSAFFPNSFQVRNTAPQESLLHNCVWIHGSEVYNQICNTSSYSICEKEL
# Legend:
# Assay in all cases: glycan array binding signal (z-score within array); higher = stronger binding
# Details in all cases: glycan notation: IUPAC condensed, linker removed
# Glc(a1-2)Glc = target: Glc(a1-2)Glc
# Outline: (§1)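 Glycan array data came from 3228 arrays in the Consortium for Functional Glycomics database, and only arrays with an available protein sequence were kept. Glycan names were put into IUPAC-condensed notation, and columns mapping to the same glycan were averaged. The binding signal is a within-array Z-score, averaged across arrays of one protein sequence run at different concentrations or buffers and across linkers. A negative Z-score can be read as non-binding.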
# [1] = target: Glc(a1-2)Glc(a1-3)Glc(a1-3)Man(a1-2)Man(a1-2)Man(a1-3)[Man(a1-3)[Man(a1-6)]Man(a1-6)]Man(b1-4)GlcNAc
# Outline: as §1
# Glc(a1-3)Glc = target: Glc(a1-3)Glc
# Outline: as §1
# [2] = target: Glc(a1-3)Glc(a1-3)Man(a1-2)Man(a1-2)Man(a1-3)[Man(a1-3)[Man(a1-6)]Man(a1-6)]Man(b1-4)GlcNAc
# Outline: as §1
# [3] = target: Glc(a1-3)Man(a1-2)Man(a1-2)Man(a1-3)[Man(a1-2)Man(a1-3)[Man(a1-2)Man(a1-6)]Man(a1-6)]Man(b1-4)GlcNAc(b1-4)GlcNAc
# Outline: as §1
# Glc(a1-4)Glc = target: Glc(a1-4)Glc
# Outline: as §1
# Glc(a1-4)Glc(a1-4)Glc = target: Glc(a1-4)Glc(a1-4)Glc
# Outline: as §1
# [4] = target: Glc(a1-4)Glc(a1-4)Glc(a1-4)Glc
# Outline: as §1
# [5] = target: Glc(a1-4)Glc(a1-4)Glc(a1-4)Glc(a1-4)Glc
# Outline: as §1
# [6] = target: Glc(a1-4)Glc(a1-4)Glc(a1-4)Glc(a1-4)Glc(a1-4)Glc
# Outline: as §1
# [7] = target: Glc(a1-4)Glc(a1-4)Glc(a1-4)Glc(a1-4)Glc(a1-4)Glc(a1-4)Glc
# Outline: as §1
# Glc(a1-6)Glc = target: Glc(a1-6)Glc
# Outline: as §1
# Glc(a1-6)Glc(a1-6)Glc = target: Glc(a1-6)Glc(a1-6)Glc
# Outline: as §1
# [8] = target: Glc(a1-6)Glc(a1-6)Glc(a1-6)Glc
# Outline: as §1
# [9] = target: Glc(a1-6)Glc(a1-6)Glc(a1-6)Glc(a1-6)Glc
# Outline: as §1
# [10] = target: Glc(a1-6)Glc(a1-6)Glc(a1-6)Glc(a1-6)Glc(a1-6)Glc
# Outline: as §1
# [11] = target: Glc(a1-6)Glc(a1-6)Glc(a1-6)Glc(a1-6)Glc(a1-6)Glc(a1-6)Glc
# Outline: as §1
# Glc(b1-3)Glc = target: Glc(b1-3)Glc
# Outline: as §1
# Glc(b1-3)Glc(b1-3)Glc = target: Glc(b1-3)Glc(b1-3)Glc
# Outline: as §1
# [12] = target: Glc(b1-3)Glc(b1-3)Glc(b1-3)Glc
# Outline: as §1
# [13] = target: Glc(b1-3)Glc(b1-3)Glc(b1-3)Glc(b1-3)Glc
# Outline: as §1
# [14] = target: Glc(b1-3)Glc(b1-3)Glc(b1-3)Glc(b1-3)Glc(b1-3)Glc
# Outline: as §1
# [15] = target: Glc(b1-3)Glc(b1-3)Glc(b1-3)Glc(b1-3)Glc(b1-3)Glc(b1-3)Glc
# Outline: as §1
# Glc(b1-4)Glc = target: Glc(b1-4)Glc
# Outline: as §1
# Glc(b1-4)Glc(b1-4)Glc = target: Glc(b1-4)Glc(b1-4)Glc
# Outline: as §1
# [16] = target: Glc(b1-4)Glc(b1-4)Glc(b1-4)Glc
# Outline: as §1
# [17] = target: Glc(b1-4)Glc(b1-4)Glc(b1-4)Glc(b1-4)Glc
# Outline: as §1
# [18] = target: Glc(b1-4)Glc(b1-4)Glc(b1-4)Glc(b1-4)Glc(b1-4)Glc
# Outline: as §1
# [19] = target: Glc(b1-4)Glc(b1-4)Glc(b1-4)Glc(b1-4)Glc(b1-4)Glc(b1-4)Glc
# Outline: as §1
# Glc(b1-6)Glc = target: Glc(b1-6)Glc
# Outline: as §1
# Glc(b1-6)Glc(b1-6)Glc = target: Glc(b1-6)Glc(b1-6)Glc
# Outline: as §1
# [20] = target: Glc(b1-6)Glc(b1-6)Glc(b1-6)Glc
# Outline: as §1
# [21] = target: Glc(b1-6)Glc(b1-6)Glc(b1-6)Glc(b1-6)Glc
# Outline: as §1
# [22] = target: Glc(b1-6)Glc(b1-6)Glc(b1-6)Glc(b1-6)Glc(b1-6)Glc
# Outline: as §1
# [23] = target: Glc(b1-6)Glc(b1-6)Glc(b1-6)Glc(b1-6)Glc(b1-6)Glc(b1-6)Glc
# Outline: as §1
# Glc(a1-2)Glc(a1-2)Glc = target: Glc(a1-2)Glc(a1-2)Glc
# Outline: as §1
# [24] = target: Glc(a1-2)Glc(a1-2)Glc(a1-2)Glc
# Outline: as §1
# [25] = target: Glc(a1-2)Glc(a1-2)Glc(a1-2)Glc(a1-2)Glc
# Outline: as §1
# [26] = target: Glc(a1-2)Glc(a1-2)Glc(a1-2)Glc(a1-2)Glc(a1-2)Glc
# Outline: as §1
# [27] = target: Glc(a1-2)Glc(a1-2)Glc(a1-2)Glc(a1-2)Glc(a1-2)Glc(a1-2)Glc
# Outline: as §1
# [28] = target: Glc(a1-2)Glc(a1-2)Glc(a1-2)Glc(a1-2)Glc(a1-2)Glc(a1-2)Glc(a1-2)Glc
# Outline: as §1
# [29] = target: Glc(a1-2)Glc(a1-2)Glc(a1-2)Glc(a1-2)Glc(a1-2)Glc(a1-2)Glc(a1-2)Glc(a1-2)Glc
# Outline: as §1
# Glc(a1-3)Glc(a1-3)Glc = target: Glc(a1-3)Glc(a1-3)Glc
# Outline: as §1
# [30] = target: Glc(a1-3)Glc(a1-3)Glc(a1-3)Glc
# Outline: as §1
# [31] = target: Glc(a1-3)Glc(a1-3)Glc(a1-3)Glc(a1-3)Glc
# Outline: as §1
# [32] = target: Glc(a1-3)Glc(a1-3)Glc(a1-3)Glc(a1-3)Glc(a1-3)Glc
# Outline: as §1
# [33] = target: Glc(a1-3)Glc(a1-3)Glc(a1-3)Glc(a1-3)Glc(a1-3)Glc(a1-3)Glc
# Outline: as §1
# [34] = target: Glc(a1-3)Glc(a1-3)Glc(a1-3)Glc(a1-3)Glc(a1-3)Glc(a1-3)Glc(a1-3)Glc
# Outline: as §1
# [35] = target: Glc(a1-3)Glc(a1-3)Glc(a1-3)Glc(a1-3)Glc(a1-3)Glc(a1-3)Glc(a1-3)Glc(a1-3)Glc
# Outline: as §1
# [36] = target: Glc(a1-3)Glc(a1-3)Glc(a1-3)Glc(a1-3)Glc(a1-3)Glc(a1-3)Glc(a1-3)Glc(a1-3)Glc(a1-3)Glc
# Outline: as §1
# [37] = target: Glc(a1-3)Glc(a1-3)Glc(a1-3)Glc(a1-3)Glc(a1-3)Glc(a1-3)Glc(a1-3)Glc(a1-3)Glc(a1-3)Glc(a1-3)Glc
# Outline: as §1
# [38] = target: Glc(a1-3)Glc(a1-3)Glc(a1-3)Glc(a1-3)Glc(a1-3)Glc(a1-3)Glc(a1-3)Glc(a1-3)Glc(a1-3)Glc(a1-3)Glc(a1-3)Glc
# Outline: as §1
# [39] = target: Glc(a1-3)Glc(a1-3)Glc(a1-3)Glc(a1-3)Glc(a1-3)Glc(a1-3)Glc(a1-3)Glc(a1-3)Glc(a1-3)Glc(a1-3)Glc(a1-3)Glc(a1-3)Glc
# Outline: as §1
# [40] = target: Glc(a1-4)Glc(a1-4)Glc(a1-4)Glc(a1-4)Glc(a1-4)Glc(a1-4)Glc(a1-4)Glc
# Outline: as §1
# [41] = target: Glc(a1-4)Glc(a1-4)Glc(a1-4)Glc(a1-4)Glc(a1-4)Glc(a1-4)Glc(a1-4)Glc(a1-4)Glc
# Outline: as §1
# [42] = target: Glc(a1-4)Glc(a1-4)Glc(a1-4)Glc(a1-4)Glc(a1-4)Glc(a1-4)Glc(a1-4)Glc(a1-4)Glc(a1-4)Glc
# Outline: as §1
# [43] = target: Glc(a1-4)Glc(a1-4)Glc(a1-4)Glc(a1-4)Glc(a1-4)Glc(a1-4)Glc(a1-4)Glc(a1-4)Glc(a1-4)Glc(a1-4)Glc
# Outline: as §1
binder,measurement,setting,value
B1,glycan array binding signal (z-score),Glc(a1-2)Glc,-0.417
same,glycan array binding signal (z-score),[1],-0.041
same,glycan array binding signal (z-score),Glc(a1-3)Glc,-0.049
same,glycan array binding signal (z-score),[2],5.02
same,glycan array binding signal (z-score),[3],-0.386
same,glycan array binding signal (z-score),Glc(a1-4)Glc,0.876
same,glycan array binding signal (z-score),Glc(a1-4)Glc(a1-4)Glc,-0.403
same,glycan array binding signal (z-score),[4],-0.367
same,glycan array binding signal (z-score),[5],-0.172
same,glycan array binding signal (z-score),[6],-0.186
same,glycan array binding signal (z-score),[7],-0.012
same,glycan array binding signal (z-score),Glc(a1-6)Glc,-0.361
same,glycan array binding signal (z-score),Glc(a1-6)Glc(a1-6)Glc,-0.342
same,glycan array binding signal (z-score),[8],0.25
same,glycan array binding signal (z-score),[9],0.943
same,glycan array binding signal (z-score),[10],2.06
same,glycan array binding signal (z-score),[11],0.441
same,glycan array binding signal (z-score),Glc(b1-3)Glc,-0.418
same,glycan array binding signal (z-score),Glc(b1-3)Glc(b1-3)Glc,-0.418
same,glycan array binding signal (z-score),[12],-0.337
same,glycan array binding signal (z-score),[13],-0.329
same,glycan array binding signal (z-score),[14],-0.204
same,glycan array binding signal (z-score),[15],-0.176
same,glycan array binding signal (z-score),Glc(b1-4)Glc,-0.418
same,glycan array binding signal (z-score),Glc(b1-4)Glc(b1-4)Glc,-0.412
same,glycan array binding signal (z-score),[16],-0.412
same,glycan array binding signal (z-score),[17],-0.418
same,glycan array binding signal (z-score),[18],-0.418
same,glycan array binding signal (z-score),[19],-0.386
same,glycan array binding signal (z-score),Glc(b1-6)Glc,-0.418
same,glycan array binding signal (z-score),Glc(b1-6)Glc(b1-6)Glc,-0.418
same,glycan array binding signal (z-score),[20],-0.418
same,glycan array binding signal (z-score),[21],-0.418
same,glycan array binding signal (z-score),[22],-0.418
same,glycan array binding signal (z-score),[23],-0.418
B2,glycan array binding signal (z-score),Glc(a1-2)Glc,-0.206
same,glycan array binding signal (z-score),Glc(a1-2)Glc(a1-2)Glc,-0.206
same,glycan array binding signal (z-score),[24],-0.206
same,glycan array binding signal (z-score),[25],-0.206
same,glycan array binding signal (z-score),[26],-0.206
same,glycan array binding signal (z-score),[27],-0.206
same,glycan array binding signal (z-score),[28],-0.206
same,glycan array binding signal (z-score),[29],-0.177
same,glycan array binding signal (z-score),Glc(a1-3)Glc,-0.161
same,glycan array binding signal (z-score),Glc(a1-3)Glc(a1-3)Glc,-0.182
same,glycan array binding signal (z-score),[30],-0.182
same,glycan array binding signal (z-score),[31],-0.182
same,glycan array binding signal (z-score),[32],-0.182
same,glycan array binding signal (z-score),[33],-0.182
same,glycan array binding signal (z-score),[34],-0.182
same,glycan array binding signal (z-score),[35],-0.182
same,glycan array binding signal (z-score),[36],0.026
same,glycan array binding signal (z-score),[37],-0.182
same,glycan array binding signal (z-score),[38],-0.182
same,glycan array binding signal (z-score),[39],-0.182
same,glycan array binding signal (z-score),Glc(a1-4)Glc,-0.182
same,glycan array binding signal (z-score),Glc(a1-4)Glc(a1-4)Glc,0.129
same,glycan array binding signal (z-score),[4],0.094
same,glycan array binding signal (z-score),[5],0.06
same,glycan array binding signal (z-score),[6],-0.182
same,glycan array binding signal (z-score),[7],-0.127
same,glycan array binding signal (z-score),[40],0.137
same,glycan array binding signal (z-score),[41],-0.112
same,glycan array binding signal (z-score),[42],-0.182
same,glycan array binding signal (z-score),[43],-0.17

# — the supplement of paper PMC8728848
